Some of the results follow.
How the values were obtained:
HSkMC = human skeletal muscle cells; experiment: cytotoxicity call (relative viability < 0.9); details: 10 µM
HepG2 = experiment: cytotoxicity call (relative viability < 0.9); details: 10 µM
S. aureus RN4220 = experiment: growth inhibition call (relative growth <= 0.2); details: 50 µM

Row | SMILES | cytotoxicity call (HSkMC) | cytotoxicity call (HepG2) | growth inhibition call (S. aureus RN4220)
1 | COc1cc(/C=C/C(=O)N2CCC=CC2=O)cc(OC)c1OC(=O)CCCCCCCCCCC(=O)Oc1c(OC)cc(/C=C/C(=O)N2CCC=CC2=O)cc1OC | inactive | inactive | inactive
2 | C[C@@H]1CN([C@H](C)CO)C(=O)c2cc(NS(=O)(=O)c3cn(C)cn3)ccc2O[C@@H](C)CCCCO[C@H]1CN(C)S(=O)(=O)c1cccs1 | inactive | inactive | inactive
3 | Cc1ccc(C(=O)Nc2ccc(Oc3cc4cnn(C)c4cc3-c3cn[nH]c3)c(F)c2)c(=O)n1-c1ccc(F)cc1 | active | active | inactive
4 | CC(C)(C)OC(=O)NCc1nnc(N)[nH]1 | inactive | inactive | inactive
5 | C[C@H](CO)N1C[C@H](C)[C@@H](CN(C)C(=O)Nc2ccc(F)cc2)Oc2c(NC(=O)c3ccc(-c4nccs4)cc3)cccc2C1=O | inactive | inactive | inactive
